PubChem BioAssay AID504832 (National Center for Advancing Translational Sciences (NCATS), 2011)
Screen size: about 310,000 compounds; about 18,000 (5.8%) were called active. The inconclusive results got no clear call from the source; some entries with a clear call stand among them for comparison. Calls come from the whole dose curve; as a rule, active = well fitted inhibition curve with a large enough effect; inconclusive = small, poorly fitted or top-dose-only effect, or another doubt; inactive = no such curve, though single readings can be large or run the other way. No potency is given beside an inconclusive call; the fits are too rough.

Assay: Primary qHTS for delayed death inhibitors of the malarial parasite plastid, 48 hour incubation
Details: P. falciparum luciferase growth in erythrocytes; series mostly up to 28.7 µM
How it was run: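 Luminescence readout; reporter = integrated firefly luciferase in P. falciparum. RBC culture at 2% hematocrit, 0.1% parasitemia final, 37 C/5% CO2; decreased signal taken as growth inhibition.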
Potency is the fitted concentration of half-maximal effect; tags give direction and shape of the fitted curve.

Compound | Potency
Cc1ccccc1NS(=O)(=O)c1ccc(NC(=O)c2ccco2)cc1 | inactive
S=C(NCCSCc1c(Cl)cccc1Cl)Nc1ccccc1 | inconclusive [inhibitor, single point]
Cc1cc(C)nc(N2CCCC(C(=O)Nc3nc4ccc(S(C)(=O)=O)cc4s3)C2)n1 (stereo not drawn) | active: 7.38 µM
CCOC(=O)c1ccc(NC(=S)N(CCCN2CCCC(C)C2)Cc2cccs2)cc1 (stereo not drawn) | inconclusive [inhibitor, single point]
COc1ccc(N(Cc2cc(=O)[nH]c3ccccc23)C(=O)C(C)C)cc1 | inconclusive [inhibitor, single point]
CNc1nc(-c2ccc3c(c2)CCN3C(=O)c2ccccc2C)cs1 | inconclusive [inhibitor, single point]
Cc1ccc2[nH]c(=O)c(CN(CCN3CCOCC3)C(=O)Nc3ccccc3F)cc2c1 | inconclusive [inhibitor, single point]
CCOC(=O)c1c(-n2c(C)cc(C=O)c2C)sc2c1CCCC2 | inconclusive [inhibitor, single point]
COc1ccc(CC(=O)c2ccc(OC)c(OC)c2C)cc1OC | inconclusive [inhibitor, single point]
CCOC(=O)c1c(-c2ccc(F)cc2)csc1NC(=O)CCN1C(=O)c2ccccc2C1=O | inactive
CC(=O)Nc1ccc(S(=O)(=O)NC2CC(=O)N(c3cccc(F)c3)C2)cc1 (stereo not drawn) | inconclusive [inhibitor, single point]
Cc1cccc(Nc2nnc(SCC(=O)c3c(N)n(C4CC4)c(=O)[nH]c3=O)s2)c1C | active: 11.7 µM
Nc1c(C(=O)O)sc2nc(-c3ccccc3)cc(-c3ccccc3)c12 | inconclusive [inhibitor, single point]
CC(C)(C)N(CC#CCC1(O)c2ccccc2-c2ccccc21)CCO | inconclusive [inhibitor, single point]
O=C(CNc1ccccc1F)Nc1cc(S(=O)(=O)N2CCCCC2)ccc1Cl | inconclusive [inhibitor, partial curve]
O=C(CSc1nc(C(F)(F)F)cc(=O)[nH]1)N1CCC(Cc2ccccc2)CC1 | inconclusive [inhibitor, full curve, poor fit]
CCN1C(=O)C(O)(CC(=O)c2c(C)coc2C)c2ccccc21 (stereo not drawn) | inactive
O=[N+]([O-])c1ccc(-[n+]2ccc3ccccc3c2)c([N+](=O)[O-])c1 | inconclusive [inhibitor, single point]
Cc1ccc(C(=O)N/N=C/c2ccc(-c3cccc(Cl)c3)o2)cn1 | inactive
O=C(NCCc1ccc(Cl)cc1)C1CCCN1C(=O)NCc1ccccc1 (stereo not drawn) | inactive
Cc1ccc(S(=O)(=O)N2CCC(C(=O)N3CCCC(C(F)(F)F)C3)CC2)cc1C (stereo not drawn) | inconclusive [inhibitor, single point]
CCN(CC)CC(O)COc1ccc2c(c1)c(C(C)=O)c(C)n2-c1ccccc1 (stereo not drawn) | inconclusive [inhibitor, single point]
CCOc1ccccc1NC(=O)C1CCCCN1S(=O)(=O)c1ccccc1 (stereo not drawn) | inconclusive [inhibitor, single point]

Compound | Potency
CCOC(=O)c1c(-c2cccs2)csc1NC(=O)COC(=O)c1c(C)noc1C | inconclusive [inhibitor, partial curve, poor fit]
O=C(NCc1cccs1)c1cc(S(=O)(=O)N2CCOCC2)ccc1N1CCCC1 | inconclusive [inhibitor, partial curve]
CCc1cccc2c(C(=O)COC(=O)c3ccccc3)c[nH]c12 | inactive
COc1ccc(S(=O)(=O)N2CCN(CC(=O)Nc3cc(OC)cc(OC)c3)CC2)cc1 | inconclusive [inhibitor, full curve, poor fit]
Cc1ccc(C)c(N2CCN(C(=O)c3ccc(Cn4c(=S)[nH]c5ccc(N6CCOCC6)cc5c4=O)cc3)CC2)c1 | active: 2.62 µM
Cc1cc(NC(=O)CSc2nnc(NCc3ccccc3)s2)no1 | inactive
COc1cc(NS(=O)(=O)c2ccc(F)cc2)c(C(=O)O)cc1OC | inconclusive [inhibitor, single point]
O=C(CCC(=O)c1cccs1)NCCc1ccc(F)cc1 | inactive
Cc1ccc2c(c1)N/C(=C(\C=C(/Cl)[N+](=O)[O-])[N+](=O)[O-])N2 | inconclusive [inhibitor, full curve]
CC(Sc1nc2cc([N+](=O)[O-])ccc2n1-c1ccc(F)cc1)C(=O)NCc1ccc2c(c1)OCO2 (stereo not drawn) | inconclusive [inhibitor, partial curve, poor fit]
CC(C)Cn1c(=O)c2ccccc2n2c(CCC(=O)NC3CCN(Cc4ccccc4)CC3)nnc12 | inconclusive [inhibitor, partial curve]
Fc1ccc(-c2cc3nc(-c4ccccc4)cc(N4CCN(CCN5CCOCC5)CC4)n3n2)cc1 | active: 1.04 µM
COc1ccc2cc(C3NC(=O)c4ccccc4N3)c(Cl)nc2c1 (stereo not drawn) | inconclusive [inhibitor, single point]
Cc1ccc(CN2C(=O)c3ccccc3NC2c2cc(Br)ccc2O)cc1 (stereo not drawn) | inconclusive [inhibitor, single point]
Cc1ccc(S(=O)(=O)Nc2cc3c(C(=O)Nc4ccccc4)c(C)oc3c3ccccc23)cc1 | inconclusive [inhibitor, partial curve, poor fit]
COc1ccc(CCNC(=O)CS(=O)Cc2nc(-c3cccs3)oc2C)cc1OC (stereo not drawn) | inconclusive [inhibitor, full curve, poor fit]
O=C(Cc1c(F)cccc1Cl)Nc1ccccc1-c1ccccc1 | inactive
COc1ccc(Cl)cc1S(=O)(=O)N1CCC(C(=O)NC2CCCC2)CC1 | inactive
O=C(Nc1ccc(F)cc1)c1ccc(S(=O)(=O)NCc2cccnc2)cc1 | inconclusive [inhibitor, single point]
CC(C)(C)OC(=O)N[C@H](C(=O)OC(C)(C)C)c1ccc(Br)cc1 | inconclusive [inhibitor, single point]
Fc1ccccc1Nc1nc(-c2ccncc2)nc2ccccc12 | inconclusive [inhibitor, single point]
CCN(CC)c1ccc(N=Cc2c(O)n(-c3cc(OC)ccc3OC)c(=O)[nH]c2=O)cc1 | inconclusive [inhibitor, single point]
Cc1ccc(NC(=O)CSc2nc(N)c3cc4c(nc3n2)CCCC4)cc1 | inactive

Compound | Potency
CC(C)(C)OC(=O)Nc1ncnc2c1ncn2C1OC(CO)C2OC(C)(C)OC21 (stereo not drawn) | inconclusive [inhibitor, full curve]
CN(CC(=O)Nc1ccccc1Br)C(=O)CN1CCN(Cc2ccc(Cl)cc2)CC1 | inconclusive [inhibitor, single point]
Cc1cc(OCC(=O)Nc2ccc(CN3CCOCC3)cc2)c2c(C)cc(=O)oc2c1 | inconclusive [inhibitor, single point]
Cn1c(SCC(=O)N/N=C/C=C\c2ccco2)nc2ccccc21 | inconclusive [inhibitor, full curve, poor fit]
CC(C)NCC(O)COc1c(F)cc(Br)cc1F (stereo not drawn) | inconclusive [inhibitor, single point]
CCc1ccc(/C=C2/C(=O)NC(=O)N2C(C)=O)cc1 | inactive
Cc1c(C(=O)O)cccc1-c1ccc(/C=N/Nc2ccc(Br)cc2)o1 | inactive
O=C(NCc1ccco1)c1ccc(COc2cccc3ccccc23)cc1 | active: 7.38 µM
CCN(C(=O)c1ccco1)c1nnc(-c2cccnc2)s1 | inactive
Cc1ccc(NC(=O)c2cc(-c3ccccc3)nn2-c2ccccc2)c(Br)c1 | inconclusive [inhibitor, partial curve]
O=C(Nc1ccccc1C(=O)N1CCCCC1)c1ccc(Cl)cc1Cl | inactive
O=C(CNS(=O)(=O)c1cccs1)N1CCN(c2ccccc2F)CC1 | inactive
O=C(Nc1cccc(-c2cccc(Cl)c2)c1)C1CCN(C2CCC2)CC1 | inconclusive [inhibitor, single point]
CCOC(=O)C(CCCCCCP(=O)(c1ccccc1)c1ccccc1)NC(C)=O (stereo not drawn) | inconclusive [inhibitor, single point]
COc1cc(OC)c(N(C)S(=O)(=O)c2cccc(C(=O)OCc3c(C)noc3C)c2)cc1Cl | inconclusive [inhibitor, partial curve, poor fit]
CCC1CCCCN1C(=O)COc1ccc(N(C)S(=O)(=O)c2ccc(C)cc2)cc1 (stereo not drawn) | inconclusive [inhibitor, single point]
CCCCCCN=C1CC(C)(C)CC(=O)/C1=C(/O)CCC | inconclusive [inhibitor, partial curve, poor fit]
CC(C)N1C(=S)SC(C)(C)C1n1oc(=O)n(-c2cccc(Cl)c2)c1=O (stereo not drawn) | inconclusive [inhibitor, single point]
CCCN1CCc2c(sc(NC(=O)Cc3ccc(F)cc3)c2C(N)=O)C1 | inactive
CCN(CC(=O)Nc1c(F)cccc1F)C(=O)Cc1csc(-c2ccccc2)n1 | inactive
CCCN(CCC)C(=O)Nc1cc(Cl)ccc1OC | inactive
CCc1ccc(N(C(=O)c2snc(C(N)=O)c2N)C(C(=O)NC2CCCC2)c2ccco2)cc1 (stereo not drawn) | inconclusive [inhibitor, single point]
